Measurements reported in PubChem BioAssay AID1345083 (National Center for Advancing Translational Sciences (NCATS), 2018).
The whole screen tested about 94,000 compounds, of which about 6,200 (6.6%) were called active. The inconclusive results got no clear call from the source; some entries with a clear call stand among them for comparison. Calls follow the shape of the dose curve; as a rule, active = well fitted inhibition curve with a large enough effect; inconclusive = small, poorly fitted or top-dose-only effect; inactive = flat fitted curve, though single readings scatter. Potencies of inconclusive entries are doubtful fits and often do not repeat.

assay: Cytotoxic Profiling in HEK 293 Cell Line of Diverse Libraries Using Quantitative High-Throughput Screening; details: HEK 293 viability, ATP luminescence (CellTiter-Glo), 48-72 h; activity change, negative = cytotoxicity: at 115 µM (top of the series) unless noted; series mostly up to 115 µM; also: nearly all actives have a fitted effect of over 60% in size
Method in brief: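 CellTiter-Glo luminescence (cellular ATP) was read after 48 or 72 hr of compound exposure at 37 degree Celsius. Cells were HEK 293 plated at 250 cells/well.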
% is scaled to controls: 0 for no effect and ±100 for the full control effect; potency is read from the fitted curve at half-maximal effect; tags tell the direction and shape of the fitted curve.

Compound	Potency	activity change, negative = cytotoxicity
O=C(CCCc1ccccc1)N1CCC2(CC1)CC(Cc1nc(-c3cccnc3)no1)CCO2 (stereo not drawn)	active: 35.5 µM	–
CCOc1ccccc1NC(=O)N[C@H](Cc1ccccc1)C(=O)N1CCOCCNC(=O)CC1	–	inactive: -17.6%
CSc1ccc(-c2cccc(C(=O)NCC(=O)NCc3ccc(F)cc3)c2)cc1	active: 15.8 µM	–
COc1cccc(CNC(=O)[C@@H]2C[C@@H](O)CN2C2CCN(C(=O)c3ccccc3OC)CC2)c1	–	inactive: -7.18%
COc1cccc(C(=O)N2CCC(N3C[C@H](O)C[C@H]3C(=O)NCc3cc(F)ccc3F)CC2)c1	–	inactive: -8.82%
CCCc1noc(-c2ccn3c(CNC(=O)c4ccc(C)c(F)c4)nnc3c2)n1	–	inactive: 1.11%
CN1C[C@@H](NC(=O)COc2ccccc2)C[C@H]1c1nc(-c2ccc3c(c2)OCO3)no1	active: 100 µM	–
CC(=O)N1CCC(N2CC[C@H](c3nnc(-c4ccco4)o3)C2)CC1	–	inactive: 2.13% [at 172 µM]
CCc1ccc(CNC(=O)c2nnn3cc(C)[nH]c(=O)c23)cc1	–	inactive: -28.6%
CC(C)CCN1CCC(N2CCN(S(=O)(=O)c3ccc(Cl)cc3)CC2)C1=O (stereo not drawn)	inconclusive: 50.1 µM [inhibitor, partial curve, poor fit]	–
Cc1noc(C)c1CCNC(=O)CN1C(=O)C(Oc2ccc(F)cc2)C12CCCCC2 (stereo not drawn)	inconclusive: 79.4 µM [inhibitor, single point]	–
COCCNC(=O)c1ccc(OC2CCN(Cc3ccc(OC)cc3F)CC2)c(Cl)c1	inconclusive: 79.4 µM [inhibitor, partial curve, poor fit]	–
CCOc1ccc(-c2cc3c(=O)n(CCNC(=O)Cc4cccc(F)c4)ccn3n2)cc1	inconclusive: 56.2 µM [inhibitor, partial curve, poor fit]	–
O=C(N[C@H]1CCN2C(=O)c3ccccc3NC(=O)[C@H]12)c1cnccn1	–	inactive: 1.98% [at 172 µM]
COc1ccc(C(=O)NC2CCN(c3ccc4nnc(C5CC5)n4n3)CC2)cc1	inconclusive: 79.4 µM [inhibitor, partial curve, poor fit]	–
O=C(c1ccccc1F)N1CCC2(CC1)CC(c1cccnc1)=NO2	–	inactive: -21.1%
CC(=O)NCCNC(=O)c1cccc(-c2ccc(C(F)(F)F)cc2)c1	–	inactive: -17%
Cc1n[nH]c(C)c1CN1C[C@@H](CO)[C@H](NC(=O)c2ccccc2)C1	–	inactive: -24.6%
Cc1cc(C)c(CNC(=O)c2c(C)sc3ccn(C)c(=O)c23)c(C)c1	inconclusive: 89.1 µM [inhibitor, single point]	–
CC1=C[C@@H](CNC(=O)CC2(CC(=O)O)CCCC2)[C@H](C(C)C)C[C@H]1Cc1nc2c(C)cccc2[nH]1	–	inactive: -24.7%
CN1Cc2nc(Nc3ccc(C(F)(F)F)cc3)ccc2OCC1=O	inconclusive: 89.1 µM [inhibitor, partial curve, poor fit]	–
CNc1cc(C2CC(NS(=O)(=O)c3cc(C)sc3C)C2)nc(N)n1 (stereo not drawn)	inconclusive: 50.1 µM [inhibitor, partial curve, poor fit]	–

Compound	Potency	activity change, negative = cytotoxicity
O=C(Nc1ccc(F)cc1)C1CCc2nnc(C3CCN([S+](=O)([O-])c4ccccc4Cl)CC3)n21 (stereo not drawn)	–	inactive: -27.9% [at 172 µM]
Cc1cc(C)n(Cc2ccc(C(=O)N3CC[C@H](CO)[C@H](O)C3)cc2)n1	–	inactive: 2.69%
COCCNC(=O)c1ccc(-c2ncc3cnc(-c4cccc(F)c4)cn23)cc1	inconclusive: 79.4 µM [inhibitor, partial curve, poor fit]	–
O=C1Nc2ccccc2C12CCN(Cc1cccc3ccccc13)C2 (stereo not drawn)	active: 79.4 µM	–
COc1ccc(C(=O)N[C@@H]2CCC[C@@H]2C(=O)Nc2cc(F)ccc2C)cn1	inconclusive: 89.1 µM [inhibitor, single point]	–
C=CCO[C@@H]1CCN2C(=O)c3cc(-c4cccc(C(F)(F)F)c4)ccc3NC(=O)[C@H]12	active: 70.8 µM	–
Cc1ccccc1-c1cnc2[nH]cc(CC(=O)Nc3cccnc3)c2c1	inconclusive: 50.1 µM [inhibitor, partial curve, poor fit]	–
O=C(c1nnc(CN2CCOCC2)n1-c1ccccc1)N1CCC[C@@H]1C(c1ccccc1)c1ccccc1	inconclusive: 50.1 µM [inhibitor, partial curve, poor fit]	–
CC(C)Cn1c(=O)c(C(=O)N2CCOCC2)nc2cccnc21	–	inactive: 1.94% [at 172 µM]
COc1ccc(-c2ccc(NC(=O)c3ccccc3C)cc2)nn1	active: 39.8 µM	–
Cc1cc2c(N3CCC(NCc4noc(C5CCC5)n4)CC3)ncnc2s1	inconclusive: 56.2 µM [inhibitor, partial curve, poor fit]	–
Cc1ccccc1NC(=O)N1CCC(CCNC(=O)c2ccc3nc[nH]c3c2)CC1	–	inactive: -14.4%
FC(F)(F)c1ccc(CN2CCCC3(CC(c4ccccc4)=NO3)C2)cc1 (stereo not drawn)	inconclusive: 79.4 µM [inhibitor, partial curve, poor fit]	–
COc1ccc(C(=O)NCCn2ccn3nc(-c4cccc(OC)c4)cc3c2=O)cc1	inconclusive: 20 µM [inhibitor, full curve, poor fit]	–
Cc1cccc(N(C)C(=O)Cn2cccc2-c2nc(-c3ccccc3)no2)c1	active: 70.8 µM	–
O=C(CC1=CCCCC1)N1CCC(C2CCNC2)CC1 (stereo not drawn)	inconclusive: 63.1 µM [inhibitor, partial curve, poor fit]	–
COc1ccc(S(=O)(=O)N2C[C@@H]3C[C@H](C2)c2c(NC(=O)C4CCCCC4)ccc(=O)n2C3)cc1	inconclusive: 89.1 µM [inhibitor, single point]	–
COCCC(=O)N1CCNc2cnc(Nc3cccc(C(F)(F)F)c3)nc2C1	inconclusive: 112 µM [inhibitor, partial curve, poor fit]	–
CCN(CC)C(=O)CCC1CCN(c2cc(NC3CC3)ncn2)CC1	–	inactive: -12%
CN1Cc2ccc(NCc3ccccc3)nc2C(C)(C(=O)NCc2cccs2)C1 (stereo not drawn)	inconclusive: 100 µM [inhibitor, partial curve, poor fit]	–
Cc1nn(-c2ccc(F)cc2)c(Oc2ccccc2F)c1CCC(=O)NCC(C)C	inconclusive: 39.8 µM [inhibitor, full curve, poor fit]	–
